The supplement of paper PMC10126150
Sequences with one replicate were seen in a single cluster, so their values are uncertain.

system: ATP; assay: switch fluorescence ratio, 500 uM ATP over buffer (Cy3 cluster intensity, sum of 5 cycles each) (fold (ratio)); higher = stronger signal-on switching upon ATP binding; sequences stand for … in TCGTCGGCAGCGTCAGATGTGTATAAGAGACAGTTTTTTTTTTTTTTTTTTTTTTTTT…TC; conditions: aptamer strand: ATP DNA aptamer (quencher-CACCTGGGGGAGTATTGCGGAGGAAGG + anchor), 100 nM annealed; ATP concentration: 500 uM; one replicate
Summary of the method: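 The quencher-labelled ATP aptamer, at 100 nM, was annealed to Cy3-labelled switching-strand clusters on a modified Illumina MiSeq flow-cell. The clusters were imaged in selection buffer, then after 15 min with 500 uM ATP at 22 °C, and this buffer/ATP cycle ran five times with NaOH stripping and re-annealing between runs. Per-cluster fluorescence ratios, summed target-cycle over summed buffer-cycle Cy3 intensity, were averaged per switch-domain sequence. Clusters outside 100-1000 RFU were excluded.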
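Also: ATP exposure 15 min at 22 °C before imaging.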

Sequence | switch fluorescence ratio
CTGGATGGTC | 1.05
CCTCAGTTGG | 1.23
CAAAGATTC | 0.957
TCAAAGAGTA | 0.953
CGAATTTCCG | 1.02
ATGGGTCAAC | 1.03
TAAATAGTTC | 1.03
TTAGTTCACT | 0.991
AAGTGGCTTC | 0.972
CTCCACGTTC | 1.57
GAGATCGGCA | 0.969
CCAAGAAGG | 0.998
TAATATTAA | 0.965
TCACCATACG | 1.41
CAGCGTTCCT | 1.25
GGAGGGTGAT | 1.04
TAGAACTACT | 1.04
TTTGTATTAA | 0.964
AGCTACGTGT | 1.07
ATATGGAAGC | 1.03
CACGCAGTAT | 1.42
ACTTTCTATA | 1.02
AACTAATAGA | 0.99
CTATCCTGAC | 1.95
CTGGCTTCGC | 1.07

Sequence | switch fluorescence ratio
TCAAATAGAG | 1.04
TCTTGTACTG | 1.08
AGGCACCGTG | 1.01
TGCTATAGCA | 0.977
TAGCCGACGT | 1.05
TGGCGATTTA | 0.979
GAACCGAGAT | 1.02
GGATAACGCC | 1
GCGAACCGCT | 1.09
TACTAACAGA | 1.08
GGACGCCTGT | 1
ATAATGTTGG | 1.02
TTAGCAATTT | 1.34
TGGGCGTGAG | 0.959
CGTGACGGA | 0.978
TAGACACTTT | 0.989
TCGATCGTT | 0.952
ATATCCGACG | 1.34
AACCAATGGA | 0.979
CCACTGCAGT | 1.67
ACGTTCCAAA | 0.997
CATTCATACT | 1.04
GTTAAAAAGT | 1.01
CTCGGGAGGG | 1.01
CAGAGAGCAC | 1.01

Sequence | switch fluorescence ratio
CCATCAGTGC | 1.93
ATTGCTAGTC | 0.933
GTCGGGAATA | 1.01
GGTAGCTCCA | 1.02
GTAAGATTCG | 0.963
TAAGTAACTG | 0.995
AATGACGCGA | 1.75
ATCGATTTGG | 0.988
TACGCCTGAG | 1.04
TGATACCACT | 1.05
ATATGTGGTC | 0.97
TGAGTTGACA | 1.02
GATATGCAAA | 0.991
TTACTACGCT | 2.24
CCCAGGGTT | 1.89
ATCACGGAGG | 1.05
AAAGAAATCT | 1.08
CTTTTTTGTC | 1.03
ACAGAGTCGG | 0.984
TGCCCCCTTC | 1.07
CCGGCGGTCG | 1.01
AGGGGCAACA | 1.05
TGAGGTACGA | 1.09
GTAGTAATCT | 1.12
TGTGTATGT | 1.01

Sequence | switch fluorescence ratio
ATCCCGTGGG | 1.05
TTATCCGCGC | 2.84
AATAAGATAC | 1.25
AAGGCTCGT | 1.02
TAGGGGCCCC | 1.01
GCAACCTCCC | 3.6
CTGTTGCGAT | 1.4
CGTAAGATGG | 1.03
TCAGGTAAAG | 1.1
TTATTCTTGA | 1.02
ATGACCAATT | 0.997
GATTATTGTT | 1.05
TCAATTACGA | 1.03
AGTTGACTCC | 1.13
TGCGGCGTAC | 1.11
AATGGGGCG | 0.985
ACGAAGACGG | 0.993
TTGCTTTGAT | 1.1
ACGATAGTGG | 0.974
TCTCCGAGGA | 1.27
TCTAGGAAGC | 1.06
TCCTTACATC | 1
ACTCTTAGGA | 0.989
CGGTTTGATG | 0.983
GCACAAGGGA | 1.02

Sequence | switch fluorescence ratio
TACTGAGCGT | 1.06
CTTGCAGCGT | 0.996
GGTGGTAC | 1
CAGTAGAGT | 1.14
CCGGTTGATT | 1.01
GATCTCTCCT | 1.05
TTGAATTTAC | 1.04
TAAACTTAGG | 0.991
GGGCGAGCTG | 0.969
ACTGCCGTGT | 1.07
CGTACCAGC | 1.01
AGATGACTTG | 1.06
GCGCAGGCCT | 1.02
CGTCACTTTT | 0.987
CGTAATGCGG | 1.05
CATAGTGTGG | 1.01
GGGGCTTGTT | 0.972
AAAGAAATAA | 0.984
ACGGCATCCC | 1.14
TTGGGCGGTC | 1.03
ATCAGGGTCG | 1.04
ACCTGTGCTT | 1.02
CGAGGAAAAT | 1.02
ACATCATGAC | 1.13
GGATCGCTGA | 0.964

Sequence | switch fluorescence ratio
CTCAACGGG | 0.96
CGCTGACATA | 1.09
TCTTTATCAA | 1.1
TTCTTAACCG | 1.01
GCCGGGGGCC | 0.982
TAAAGAGTAA | 0.987
ACCTTATGAT | 1.04
GCTTGCCCCG | 0.963
AACTTATTAT | 0.999
GTGAAGTAAC | 1.01
GAACTCAGTA | 1.01
GTCAGTACGC | 1.12
CTACTGGCGG | 1.01
TTTCGGACGG | 1.02
TAGGCCGGAT | 1.13
TTAAGGTACT | 1.03
GGTGCACGCA | 1.04
AGACTTCTGC | 0.958
CGATGCAGCT | 1.05
CCCCGTCAAT | 1.01
ATAGCGATGG | 1.31
GGGGGCTTTC | 1
TCCTGCGGAC | 2.95
ATTGTTGCTA | 1.04
AACGGTTGTT | 1.01

Sequence | switch fluorescence ratio
TTTAGTTCTT | 1.01
TGCGGCACCT | 1.12
ACACTGGCAG | 0.944
CCATCTCCAA | 1.13
CCGCTGGAGC | 1.68
AAATACGAAC | 1.46
CTTAGACTTG | 1.03
ACGGAGGGCG | 1.07
TAGCTTGTGT | 0.995
CTGAAAAAGA | 1.01
ACTATTTAAT | 1
TTCCTGCATA | 1.23
GTGGATAGAC | 0.986
CCCTGGGGAT | 4.2
TTGCGCAAA | 1.02
CAGATCCTGC | 1.02
GGTATACCGA | 0.979
CAGCTCGCGC | 1.01
TAGCGGTACG | 0.97
TACGACTCAA | 5.48
AACCCTTCGG | 0.95
CACCTACCTA | 1.29
TAAAGACCGC | 0.997
AGTTATGGTC | 0.999
ATATGCTACG | 1

Sequence | switch fluorescence ratio
GGGTTTCACC | 1.02
GAGACTCTTA | 1.01
GGAAGCCTTT | 1.19
TGGCTGTGCG | 0.963
TCTGATAT | 1.02
CCATAACGGT | 1.65
GACTTTAGTC | 1.02
TGGCGCTAAC | 1.26
CAGCGGTCGA | 1.01
AGCTAGATCA | 0.951
TGTTCTTAGA | 1.02
GTATAAATCT | 1.07
TGATATAAGT | 1.04
CCTTGCTCTG | 2.8
CGAAGGTCCC | 1.03
TGCAGGTGGA | 1.14
GACGCCAGGC | 1.45
TGGGTGGTAT | 2.04
ATGGAATTGC | 1.05
AAAGAAATCC | 1
TGTGAAGAAG | 0.971
AGCTACGTAG | 0.998
CTATCTTTGG | 0.982
ACTCCCCGAT | 1.14
CCACGGTTGG | 0.972
